The values below come from the supplement of paper PMC11417369.

± gives the standard deviation of the averaged measurements. The list shows a part of the results.

The assay concerns PfAP2-I AP2 domain 3 (GST-tagged). Kind of assay: gcPBM binding intensity (ln(normalized median fluorescence intensity)); higher = stronger DNA binding. In short, it runs like this: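 Binding intensity values are the highest Masliner-normalised natural-log median intensity among replicate spots of either probe orientation. The binding step lasted 1 h in 1× PBS with 1% milk, 0.2 mg/ml BSA, 0.5% salmon testes DNA and 0.03% Triton X-100, using GST-tagged P. falciparum DNA-binding domains expressed in E. coli on an Agilent 4 × 180k array of primer-extended double-stranded 36-bp intergenic genomic probes plus negative controls. Alexa488 anti-GST antibody and a 488 nm scan detected bound protein.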
Take “ATAAATTGAAGTAAATTTGACCTTTTTTTTTTTTTT [GTGCAC_negctrl_site354]”: the “gcPBM binding intensity (ln)” value was found to be 7.97 ± 0.64.
The result for “ATAATAATATGTGGGTGTACATATACACATATATAT [XGTACX_site4356]” reads 8.21 ± 0.73; that for “AGAACATGCAAACATGCACACAGAAAAAAAAAATAT [CACACA_site8442]”, 8.57 ± 0.25; that for “ATGTTACACAGACACACACACATAAAAAAACAAAAA [CACACA_site7516]”, 7.95 ± 0.43.
The same measure for “TTTTTAAAAAATAAGAAAAAATAAATATATTACAAA [XGTACX_negctrl_site191]”: 7.58 ± 0.54; for “CAGCATGGTATACCTATAAAATATATATACTAACAT [TGCATGCA_negctrl_site51]”: 7.6 ± 0.51; for “CACATACATATATATACACACAAATATATATACGCA [CACACA_site791]”: 7.82 ± 0.4.
“GGCATATATACATATGGTACACATTTATTAATACCG [XGTACX_site2710]”: the “gcPBM binding intensity (ln)” value is 7.7 ± 0.52.
The result for “AGGATATAAAGTTGTGCATGTCAAGTGCACCGTATT [TGCATGCA_site451]” reads 11 ± 0.35; that for “AGAAAAATCTAAATTCGTACATAACGTTTAAACATA [XGTACX_site2511]”, 7.47 ± 0.45.
The same measure for “GATGTGTATATTAAATGTACGAACAGTTGAGGCGAA [XGTACX_site7853]”: 8.29 ± 0.36.
The result for “TTTTTATAAAAATGAACACACACATATATATATATA [CACACA_site9160]” reads 9.43 ± 0.69; that for “AATAACACTATTTAACGTACAAAAAAAAAAAAGAAA [XGTACX_site3721]”, 7.79 ± 0.34; that for “ATATATCTTTATATAGTGCATTAAATATGTTGTAAT [GTGCAC_site9953]”, 11.5 ± 0.54.
Consider “ATACTAAAAATGAATGTACACATATATATATATATA [TGCATGCA_negctrl_site209]”, for which the “gcPBM binding intensity (ln)” value was 9.48 ± 0.42.
The same measure for “AAAAAAAATAAAAATAGTACCCAAAAAATTATGAAT [XGTACX_site6641]”: 7.8 ± 0.64; for “TATAATAAAATATTTTGTACGTATATTTTAATATTT [XGTACX_site2582]”: 7.75 ± 0.3.
The result for “AATTAATAAATATTATATGTTAATATTTTTTTTGTT [CACACA_negctrl_site1692]” reads 7.18 ± 0.49.
The result for “AGAGGAGTAAAACAAAACAAAGAGAAATAAACACAC [XGTACX_negctrl_site386]” reads 9.17 ± 0.26.
Consider “AAAAAATATAATAATTGTACACATGCACACACAAAT [XGTACX_site1563]”, for which the “gcPBM binding intensity (ln)” value is 8.25 ± 0.48.
The same measure for “TTTCATATCTTGTCAAGTACATATTTTTATTTTCTT [XGTACX_site2160]”: 7.6 ± 0.62; for “ACTTAATATCGGTACACACACAAGATAAGAATTATG [CACACA_site894]”: 8.06 ± 0.28; for “AAAAAGGAAATAATAACACACATTAGTAATTATAAA [CACACA_site7573]”: 7.47 ± 0.68.
The same measure for “CACAGACACGGACACACACACACAAAAAAAAAAAGA [CACACA_site4436]”: 8.12 ± 0.014; for “TATTTTCTTTAATTAATTATTGGTCTGAATGGGGTT [CACACA_negctrl_site418]”: 7.61 ± 0.41; for “TATTAAAAAAATATTTGTACTTAAAATTTATTATAT [XGTACX_site1467]”: 7.62 ± 0.39.
“ACAAAAAAAAAAAAAAAAAGAAGAATATATCTATAT [CACACA_negctrl_site759]”: the “gcPBM binding intensity (ln)” value amounted to 7.3 ± 0.52.
The same measure for “TATCATACAATATTCACACAAATAAATTGACATATT [CACACA_site5891]”: 7.46 ± 0.49; for “AAGAGTTAAAAAAATACACACATATAGATTTTTTTA [CACACA_site7018]”: 7.61 ± 0.51; for “ATAAATAAAAAAGAAAGAAAGAAAGAAACAAACAAA [CACACA_negctrl_site1198]”: 7.46 ± 0.73.
On to “TATTAATGCAAATGTTATATGTGCATACATAAATGT [CACACA_negctrl_site790]”, for which the “gcPBM binding intensity (ln)” value came to 8.76 ± 0.15.
The result for “TATTACATACATATCTGTACATATATTAATGCACAA [XGTACX_site3315]” reads 11.6 ± 1; that for “AAAAATATTAAAAAAGGTACACAGCATATCTCTTTT [XGTACX_site65]”, 7.62 ± 0.63; that for TCCAATTGTTCTAGTGTGCACATAAATAAATCTCAT, 10.1 ± 0.16.
The result for TTCATATTCGATAAAGTGCATTAATTTTATTTATCA reads 11.3 ± 0.73; that for “AATACTTTTTTCTGTACACACTTGATTTACTATAAT [CACACA_site5544]”, 8.4 ± 0.45.
The same measure for CAATTATTGTAATGCATGCACTGAATATAAAAAGAA: 9.92 ± 0.54.
As to “TTTATATGTATTAAGTGTACACATATAATGTATTTT [XGTACX_site16]”, the “gcPBM binding intensity (ln)” value came to 8.04 ± 0.13.
The same measure for “AAATTAATGTATATGTGAAGCAAGGGATGCGGCAGA [CACACA_negctrl_site406]”: 8.28 ± 0.92; for “ATATATATATATATATAATATATAATATATATATAT [CACACA_negctrl_site96]”: 9.18 ± 0.31.
The same measure for “AAATATTATGTACGCACACACATTTTTAATATATAA [CACACA_site3851]”: 8.53 ± 0.25.
The same measure for “TTATTTACAACTTCAAATTATGTGTAATACTACTAT [CACACA_negctrl_site741]”: 7.71 ± 0.5; for “TAAAAAAAAACTCATGCACACAATATTATGAAAAAG [CACACA_site665]”: 8.26 ± 0.58; for “TTTTTTTCTTTTTACATACACACAAAAAAATAAAAT [CACACA_site580]”: 7.98 ± 0.45.
Turning to “AGCACATTATTCAAAAGTACAAATAGGTATTGTATA [XGTACX_site6107]”, the “gcPBM binding intensity (ln)” value is 7.63 ± 0.49.
The result for “AATATAAAAAAAAAAAAAAAAAAAAAAAAAAAGACA [CACACA_negctrl_site983]” reads 7.66 ± 0.31; that for “TTACGAATTACATATTGTACATATGCACAATTTTAA [XGTACX_site6802]”, 8.56 ± 0.16; that for “AATTAAAATACAAATGTATGCATGTCTCATATAGAA [TGCATGCA_site822]”, 7.66 ± 0.7.
On to “TACATAATTTAAAATTTTATAAGTTGTAATTCGTTT [XGTACX_negctrl_site308]”, for which the “gcPBM binding intensity (ln)” value worked out at 7.32 ± 0.54.
The result for “TATTTATAAAAAGATTGTACATTTTTTATTATTGTA [XGTACX_site6016]” reads 7.45 ± 0.38; that for “ATAAAACAACAAAGAAAATGAAAAAGTAAAAACATA [CACACA_negctrl_site596]”, 7.71 ± 0.64.
The result for “AAAAAAAAAAAAAAAACACACATATATCTATAATAT [CACACA_site6665]” reads 8.55 ± 0.35.
The same measure for “TATACAAAATATTTTACACACACATATATATACATA [CACACA_site2616]”: 8.03 ± 0.46; for “CATTATTTATTTTAATGTACTTATTTTTAAATTGGT [XGTACX_site8038]”: 7.875 ± 0.007.
As for “AGTGCATACATGAATTGTACTTTAAAATAAATTCTA [XGTACX_site8156]”, the “gcPBM binding intensity (ln)” value was determined as 9.7 ± 0.52.
On to “TCCTATAATAACGTCACACATTAAATTTAATAAATT [CACACA_site4506]”, for which the “gcPBM binding intensity (ln)” value is 7.93 ± 0.58.
